From the supplement of paper PMC4466236
The full ranking holds about 33,000 sequences; the median of “E-score (dimensionless, -0.5 to 0.5)” is about -0.058, and the highest 2% start at about 0.35. This is one part of the list.

Tested on: MvaT
Experiment: PBM 8-mer E-score (mean of HK and ME arrays) (E-score (dimensionless, -0.5 to 0.5)); higher = stronger relative binding preference; most listed sequences are background and not binding sites
Outline: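 Full-length P. aeruginosa MvaT, with glutathione S-transferase fused to its N-terminus (cloned into pTH6838 by isothermal assembly), was tested by protein binding microarray using a previously described protocol. Two universal double-stranded 60-mer arrays (ME and HK) were used, each with a constant 25-mer primer region and a variable 35-mer region covering all 8-mers. The rank-based 8-mer E-score (-0.5 to 0.5) is the mean of the two arrays, parsed with a custom Python script.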

Row | Sequence | PBM 8-mer E-score
1 | CGACATCC | -0.109
2 | ACGTTCTA | 0.178
3 | AAGGCAAA | 0.0855
4 | AGATTTCC | -0.0424
5 | ATGACCTA | -0.139
6 | CGCGCCCC | -0.273
7 | CCGTCATC | -0.14
8 | ATGATTCA | 0.153
9 | AGATTAGA | 0.188
10 | GAGCTGCA | -0.107
11 | AAGTTCGT | 0.181
12 | CATCCGCC | -0.163
13 | AGGCTGGA | -0.135
14 | ACACGATC | -0.0432
15 | ACTAATCT | 0.197
16 | CGCCAGAC | -0.212
17 | ACAAGTAA | 0.317
18 | CAGACTCC | -0.24
19 | CTTTATAC | 0.264
20 | GAATACCC | -0.0297
21 | ACGTGACC | -0.122
22 | GTGAGAGA | -0.0566
23 | CCAGGTTA | -0.138
24 | GTTCAAAA | -0.0446
25 | GAATCGGC | -0.213

Row | Sequence | PBM 8-mer E-score
26 | CAAAGACC | -0.0793
27 | CACCCATA | 0.131
28 | GATGGACA | -0.218
29 | ACTCTCGG | -0.108
30 | TCCGAAAA | -0.0589
31 | ACCCTGAG | -0.208
32 | GACGCACA | -0.017
33 | ATAACTAG | 0.27
34 | CTATGATC | -0.0064
35 | ACACCTCA | 0.0382
36 | ACCGGCTC | -0.3
37 | CCTCGAGG | -0.23
38 | CTTCCGGC | -0.257
39 | CTCCGCAA | -0.127
40 | AGAAGATA | 0.0783
41 | CGTTTATA | 0.34
42 | CCATTAAA | 0.329
43 | CACTGGCC | -0.258
44 | AGCTTCGG | -0.222
45 | ATGATTGC | -0.0682
46 | CACTATCG | 0.154
47 | TGATGGCA | -0.146
48 | CGATACTA | 0.0825
49 | CATCTGAG | -0.0797
50 | AGGGGTGC | -0.279

Row | Sequence | PBM 8-mer E-score
51 | AGGCACAC | -0.171
52 | GATAAGCA | -0.0813
53 | ACGCAGCA | -0.145
54 | AAACCACA | 0.121
55 | AGAGCTTC | -0.2
56 | AGGTCCTG | -0.144
57 | CGCTCGAA | -0.112
58 | GACAAGTA | 0.143
59 | ACAAACCG | 0.0425
60 | CACTCAAC | -0.0191
61 | GGTGGATA | -0.0615
62 | TAGATAAA | 0.147
63 | ACGAAACG | -0.0475
64 | ACATAGTG | 0.0877
65 | GACTAACC | -0.0953
66 | GCTGCTTA | 0.0449
67 | CCGTTTTA | -0.0465
68 | CCAATTGG | -0.00824
69 | ATAGGCCA | -0.122
70 | AAAACTCT | 0.0469
71 | CACTCGCA | -0.113
72 | CGGTGGGA | -0.0568
73 | CCCACAAC | -0.0863
74 | CTAATGGC | -0.00928
75 | ATTCACTG | -0.0332

Row | Sequence | PBM 8-mer E-score
76 | AGCGTGCA | -0.173
77 | CACCGGGG | -0.14
78 | GATACTGC | -0.105
79 | CCCTGTAG | -0.287
80 | AGACGTCC | -0.219
81 | ATCTGAAA | 0.134
82 | ACCATTGA | -0.0569
83 | AAGCAAGA | 0.0647
84 | TAAGTCAA | 0.125
85 | GACAATCC | 0.0147
86 | CTTATAGA | 0.0191
87 | ATGCTAGC | -0.0196
88 | AGTACTGA | 0.123
89 | CAATTGGA | 0.139
90 | ATGGTTTC | -0.00565
91 | ACCGGGCG | -0.204
92 | CACATTCA | 0.168
93 | CCAAAAAC | 0.0844
94 | AGATCTCG | -0.173
95 | AATCAGTC | -0.0674
96 | CAGACCGC | -0.243
97 | ACTATCAG | -0.00533
98 | CGGCCCGA | -0.249
99 | CAACCCCC | -0.326
100 | AACGCAAG | -0.0605

Row | Sequence | PBM 8-mer E-score
101 | CGAATAAG | 0.122
102 | CAACACGA | 0.00572
103 | CAAGTCCA | -0.0879
104 | GTATCGTA | -0.0264
105 | GCCTACGA | -0.271
106 | ACCACGCC | -0.151
107 | TCGACCGA | -0.118
108 | AAGTCTGA | -0.121
109 | CGAGGCCG | -0.0886
110 | CAGCCATA | 0.00647
111 | CACAGAAC | -0.155
112 | GTGTCTCA | -0.134
113 | CTAGGGAC | -0.298
114 | AGGAGAAG | -0.116
115 | CTTGTCAA | -0.126
116 | AATAATAT | 0.453
117 | AGCCATTC | -0.0191
118 | AGTACGAC | 0.0103
119 | CCACATGG | -0.261
120 | CACGTGTA | -0.0409
121 | GACATCTA | 0.0712
122 | AGGCGCCT | -0.21
123 | ATGAGAAG | 0.00319
124 | AGCTGTTG | -0.0862
125 | TCGAGTAA | 0.105

Row | Sequence | PBM 8-mer E-score
126 | ACGCGAGC | -0.0351
127 | CAAACTGG | -0.021
128 | GAGGTCCA | -0.236
129 | TTGGAAAA | 0.114
130 | AGGCAATA | 0.0479
131 | CTTGGGTC | -0.169
132 | ACGGGGAT | -0.00987
133 | AACGAATA | 0.147
134 | CACCCTCG | -0.138
135 | GCAGTAGC | -0.117
136 | ATGATCCG | 0.0148
137 | AGTGGTAC | -0.00144
138 | CCTGCCAG | -0.294
139 | ACGTTCCG | -0.172
140 | GTTCCGGA | -0.0817
141 | AGAGGATA | 0.0844
142 | AGAATAGG | -0.0847
143 | AAAACGAC | 0.0691
144 | ATGCAGCG | -0.132
145 | CAAAGGTG | -0.183
146 | GGCCAGCA | -0.243
147 | CCCCCCGC | -0.255
148 | GGCAGGCC | -0.31
149 | GCTGTGCA | -0.156
150 | CTTTCCTC | -0.139

Row | Sequence | PBM 8-mer E-score
151 | GCGACCCA | -0.225
152 | AATCCTAT | 0.0221
153 | CCAGGTTC | -0.21
154 | CCCAATCC | -0.26
155 | CCATCAGC | -0.219
156 | GGAGACAA | -0.172
157 | ATGTATGC | 0.132
158 | CCGTACGC | -0.105
159 | ATCCCCAT | -0.272
160 | CAAGGGAG | -0.251
161 | AAGCCGGT | -0.0176
162 | GCGGGAGC | -0.292
163 | CGTCCTAG | -0.236
164 | AAAGACTA | 0.0896
165 | TATTGTGA | 0.147
166 | AGCTTCGC | -0.24
167 | ACTAGACA | 0.0835
168 | CGTAGATC | -0.27
169 | ATCTAATA | 0.321
170 | CCCCATCA | -0.158
171 | CAGCTATC | -0.264
172 | AACGTCGG | -0.221
